According to the supplement of paper PMC4967469:
Lines with a small IC50 respond at low doses; fits outside the tested doses are given as limits. AUC, from the same fit, is the share of area under the viability curve across the 256-fold dose range; it is 1 without any effect and falls as sensitivity rises. An inferred top dose was derived from the fitted curves, not read from the paper.

compound: CCc1nc(-c2cccc(C)c2)c(-c2ccnc(NC(=O)c3ccccc3)c2)s1 [TAK-715]; experiment: Viability of human cancer cell lines after 72 h of drug (GDSC screen); settings: top dose inferred
Description: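 Human cancer cell lines in 384-well plates, medium with 10% serum, drug for 72 h over a 256-fold dose range (nine 2-fold or five 4-fold steps up to the top dose). Adherent lines were fixed and stained with the nucleic acid dye Syto60, suspension lines read with resazurin; signal relative to control wells, capped at 0 and 100%. One two-parameter sigmoid per drug and line, fitted in a mixed model over all curves with the slope shared within a line.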

Row | Cell Line | AUC | IC50
1 | RKN (ovary, adherent, top dose 20 µM) | 0.973 | > 20 µM
2 | RKO (large intestine, adherent, top dose 20 µM) | 0.859 | 14.8 µM
3 | RL95-2 (endometrium, adherent, top dose 20 µM) | 0.973 | > 20 µM
4 | RL (B-cell lymphoma, suspension, top dose 20 µM) | 0.817 | 10 µM
5 | RMG-I (ovary, adherent, top dose 20 µM) | 0.897 | > 20 µM
6 | RO82-W-1 (thyroid, adherent, top dose 20 µM) | 0.983 | > 20 µM
7 | ROS-50 (B-cell leukaemia, suspension, top dose 20 µM) | 0.882 | > 20 µM
8 | RPMI-2650 (head and neck, adherent, top dose 20 µM) | 0.94 | > 20 µM
9 | RPMI-6666 (Hodgkin lymphoma, suspension, top dose 20 µM) | 0.797 | 11.7 µM
10 | RPMI-7951 (melanoma, adherent, top dose 20 µM) | 0.951 | > 20 µM
11 | RPMI-8226 (myeloma, suspension, top dose 20 µM) | 0.912 | > 20 µM
12 | RPMI-8402 (T-cell lymphoblastic leukaemia, suspension, top dose 20 µM) | 0.657 | 3.14 µM
13 | RPMI-8866 (chronic myeloid leukaemia, suspension, top dose 20 µM) | 0.887 | 19.5 µM
14 | RS4-11 (leukaemia, suspension, top dose 20 µM) | 0.883 | 18.2 µM
15 | RT4 (bladder, adherent, top dose 20 µM) | 0.906 | > 20 µM
16 | RT-112 (bladder, adherent, top dose 20 µM) | 0.985 | > 20 µM
17 | RVH-421 (melanoma, adherent, top dose 20 µM) | 0.877 | > 20 µM
18 | RXF393 (kidney, adherent, top dose 20 µM) | 0.948 | > 20 µM
19 | Raji (Burkitt lymphoma, suspension, top dose 20 µM) | 0.957 | > 20 µM
20 | Ramos-2G6-4C10 (Burkitt lymphoma, suspension, top dose 20 µM) | 0.898 | 18.6 µM
21 | SAS (head and neck, adherent, top dose 20 µM) | 0.906 | > 20 µM

Row | Cell Line | AUC | IC50
22 | SAT (head and neck, adherent, top dose 20 µM) | 0.947 | > 20 µM
23 | SBC-1 (small cell lung carcinoma, suspension, top dose 20 µM) | 0.978 | > 20 µM
24 | SBC-3 (small cell lung carcinoma, adherent, top dose 20 µM) | 0.899 | > 20 µM
25 | SBC-5 (small cell lung carcinoma, adherent, top dose 20 µM) | 0.979 | > 20 µM
26 | SCC90 (head and neck, adherent, top dose 20 µM) | 0.981 | > 20 µM
27 | SCC-3 (B-cell lymphoma, suspension, top dose 20 µM) | 0.938 | 17.8 µM
28 | SCC-4 (head and neck, adherent, top dose 20 µM) | 0.982 | > 20 µM
29 | SCC-9 (head and neck, adherent, top dose 20 µM) | 0.827 | 17 µM
30 | SCC-15 (head and neck, adherent, top dose 20 µM) | 0.947 | > 20 µM
31 | SCC-25 (head and neck, adherent, top dose 20 µM) | 0.85 | 18.4 µM
32 | SCH (stomach, adherent, top dose 20 µM) | 0.965 | > 20 µM
33 | SF126 (glioma, adherent, top dose 20 µM) | 0.968 | > 20 µM
34 | SF268 (glioma, adherent, top dose 20 µM) | 0.94 | > 20 µM
35 | SF295 (glioma, adherent, top dose 20 µM) | 0.954 | > 20 µM
36 | SF539 (glioma, adherent, top dose 20 µM) | 0.973 | > 20 µM
37 | SH-4 (melanoma, adherent, top dose 20 µM) | 0.942 | > 20 µM
38 | SHP-77 (small cell lung carcinoma, semi-adherent, top dose 20 µM) | 0.942 | > 20 µM
39 | SIG-M5 (acute myeloid leukaemia, suspension, top dose 20 µM) | 0.88 | 12.1 µM
40 | SIMA (neuroblastoma, adherent, top dose 20 µM) | 0.947 | > 20 µM
41 | SISO (cervix, adherent, top dose 20 µM) | 0.97 | > 20 µM
